Reference: PubChem BioAssay AID1346428 (National Center for Advancing Translational Sciences (NCATS), 2018)
“And” between values parts separate entries of the source, which are not always exact repeats. Identical values can stand only once. The campaign covered roughly 48,000 compounds. About 1,200 (2.5%) were called active. Inconclusive results (about 2%) are left out.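 The calls were made as follows: active = activation of at least 60% and not above a set upper limit (about 1 call in 100 departs from these limits); inconclusive = activation of 40% to 60%, or above that upper limit; inactive = activation under 40%.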 Some of the results follow.

Target: Probable G-protein coupled receptor 32 (Homo sapiens) (UniProt O75388)
Test: qHTS for Agonists of Human Resolvin D1 Receptor DRV1; also: 0% is about no effect
Details: CHO-K1 GPR32 beta-arrestin PathHunter luminescence, 90 min; at 76.9 µM; hits give high values; zero percent set by DMSO-only wells
Summary of the method: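 GPR32 activation in stably transfected CHO-K1 cells, detected as beta-arrestin recruitment by enzyme-fragment complementation. Compound exposure: 90 min, 37 °C.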

UniProt O75388, sequence (O75388 whole entry, looked up): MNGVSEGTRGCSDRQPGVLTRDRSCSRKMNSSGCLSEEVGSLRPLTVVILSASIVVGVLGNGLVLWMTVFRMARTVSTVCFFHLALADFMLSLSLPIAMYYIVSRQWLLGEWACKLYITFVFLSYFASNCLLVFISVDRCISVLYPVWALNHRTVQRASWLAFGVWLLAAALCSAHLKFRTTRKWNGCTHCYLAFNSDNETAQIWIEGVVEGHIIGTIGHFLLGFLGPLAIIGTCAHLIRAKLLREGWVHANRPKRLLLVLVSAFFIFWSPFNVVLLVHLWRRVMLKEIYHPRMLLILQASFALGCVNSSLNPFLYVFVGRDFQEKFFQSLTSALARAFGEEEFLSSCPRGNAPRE

Q: For `COc1ccc(OCC(=O)Nc2nnc(S(=O)(=O)N3CCCCCC3)s2)cc1`, which activation is on record?
A: inactive: 35.4%

Q: `CCc1c(C)c2ccc3c(c2oc1=O)CN(Cc1ccccc1)CO3` was tested. Which activation did it give?
A: inactive: 48%

Q: For `O=C(CSc1nccn1Cc1ccco1)Nc1cccc(F)c1`, which activation is on record?
A: inactive: -4.09%

Q: How did the activation turn out when `O=C(Nc1ccc(C(F)(F)F)cc1)C1CCC(CNS(=O)(=O)c2cccc3nsnc23)CC1` (centres undefined) was run?
A: active: 114%

Q: With `CCOC(=O)C1CCN(C(c2ccccc2)c2c(O)cc(C)n(Cc3ccco3)c2=O)CC1` (centres undefined) as the compound, how does the activation read?
A: inactive: -18.8%

Q: With `Cc1ccc(-n2c(CCC(=O)O)ccc2-c2cccs2)cc1C` as the compound, how does the activation read?
A: inactive: -23.5%

Q: `COc1cc(C2CC(=O)Nc3c2c(=O)[nH]c2nc4ccccc4n32)ccc1O` (centres undefined) was tested. Which activation did it give?
A: inactive: -5.84%

Q: For `CCC(C)NC(=O)c1cc2c(Cl)nc3ccc(C)cc3c2s1` (centres undefined), which activation is on record?
A: inactive: -1.67%

Q: How did the activation turn out when `CC1(C)C(=O)N(CC(=O)Nc2ccc(Cl)cc2)c2ccccc21` was run?
A: inactive: 8.81%

Q: How did the activation turn out when `Oc1ccccc1O` was run?
A: inactive: 2.25%

Q: How did the activation turn out when `Cc1ccc2c(c1)cc(C(=O)Nc1ccccc1C)n2C` was run?
A: inactive: -2.57%

Q: How did the activation turn out when `COc1ccc(-c2nn3c(-c4ccc(OC)cc4)nnc3c3ccccc23)cc1` was run?
A: inactive: -1.01%

Q: For `CCc1nn2c(=O)cc(COC(=O)c3ccccc3NC(=O)COc3ccccc3C)nc2s1`, which activation is on record?
A: inactive: -6.75%

Q: How did the activation turn out when `COc1cccc(OC(=O)CSc2nnc(-c3ccccc3OC)o2)c1` was run?
A: inactive: -1.97%

Q: For `O=c1cc(CN2CCN(S(=O)(=O)c3ccc(Cl)cc3)CC2)nc2sc(-c3ccccc3F)nn12`, which activation is on record?
A: inactive: -9.97%

Q: `O=S(=O)(NCCc1ccccc1)c1ccc(N2CCCCS2(=O)=O)cc1` was tested. Which activation did it give?
A: inactive: 3.66%

Q: With `O=C(CSc1nc(-c2ccc(Cl)cc2)nc2c1Cc1ccccc1O2)N1CCCCC1` as the compound, how does the activation read?
A: inactive: 6.47%

Q: For `Cc1ccc(N2C(=O)CS(=O)(=O)C23C(=O)N(Cc2cccc(F)c2)c2ccccc23)cc1Cl` (centres undefined), which activation is on record?
A: inactive: 0.63%

Q: With `CO/N=C(\C(=O)N[C@@H]1C(=O)N2C(C(=O)O)=C(CSc3nc(=O)c(O)nn3C)CS[C@H]12)c1csc(N)n1` as the compound, how does the activation read?
A: inactive: 43.9%

Q: `Cc1cccc(NC(=O)c2sc3nc4n(c(=O)c3c2C)N=C(c2ccc(F)cc2)CS4)c1C` was tested. Which activation did it give?
A: inactive: -9.91%

Q: Which activation does the source give for `Cc1ccc(C)c(N2CCN(c3nc4ccccc4c4nc(CCn5nc(C)cc5C)nn34)CC2)c1` here?
A: inactive: 27.3%

Q: Which activation does the source give for `COc1ccc(C(=O)O)cc1Nc1nc2ccc(C)cc2n2cnnc12` here?
A: inactive: -9.75%

Q: With `NC(=O)CC[C@@H](N)C(=O)O` as the compound, how does the activation read?
A: inactive: -3.87%

Q: For `COc1ccc(Cl)cc1NC(=O)c1cc2nc(-c3ccc4c(c3)OCO4)cc(C(F)(F)F)n2n1`, which activation is on record?
A: inactive: -13.7%

Q: `COC(=O)Cn1c(=O)c2c(nc3n2CCN3c2cccc(C)c2)n(C)c1=O` was tested. Which activation did it give?
A: inactive: 1.15%

Q: How did the activation turn out when `CCCCc1ccc(NC(=O)c2cc3c(=O)n4ccccc4nc3n2C)cc1` was run?
A: inactive: 8.89%

Q: With `COc1ccc(NC(=O)CCCc2nc(-c3ccco3)no2)c(OC)c1` as the compound, how does the activation read?
A: inactive: -18.7%

Q: How did the activation turn out when `COc1ccc2nc3sc(C(=O)Nc4ccccc4F)cc3cc2c1` was run?
A: inactive: 42.8%

Q: `CCN(CC)S(=O)(=O)c1ccc(NC(=O)[C@H](CSCc2ccccc2)N2Cc3ccccc3C2=O)cc1` was tested. Which activation did it give?
A: inactive: -17.8%

Q: How did the activation turn out when `Cc1ccc(CN2C(=O)c3ccccc3C2C(=O)NC2CCCCCC2)cc1` (centres undefined) was run?
A: inactive: 8.33%

Q: For `Cc1ccc(NC(=O)c2sc3ccccc3c2Cl)cc1`, which activation is on record?
A: inactive: 17.6%

Q: For `CCOc1ccccc1NC(=O)c1c(C)cc(C)nc1SCC(=O)c1cccc(OC)c1`, which activation is on record?
A: inactive: -24.6%

Q: `Cc1cc(Nc2cccc(C(F)(F)F)c2)nc2ccc(NC(=O)c3ccc(N(C)C)cc3)cc12` was tested. Which activation did it give?
A: inactive: -5.2%

Q: For `Cc1cc(O)c(C(c2ccc(F)cc2)N2CCCCC2)c(=O)n1Cc1ccco1` (centres undefined), which activation is on record?
A: inactive: -13.4%

Q: `CCc1ccc(-n2nc(C)c3c(C(=O)Nc4cccc(C(F)(F)F)c4)cc(C)nc32)cc1` was tested. Which activation did it give?
A: inactive: 12.9%

Q: Which activation does the source give for `O=C(Nc1cccc(C(=O)N2CCCCC2)c1)c1nsc2ccccc12` here?
A: inactive: 5.44%

Q: `COc1ccc(CNC(=O)CCn2nc(C)c3c(C)n(-c4ccccc4)nc3c2=O)cc1OC` was tested. Which activation did it give?
A: inactive: -8.79%

Q: Which activation does the source give for `Cc1ccc(NC(=O)CCCn2nc(C)c3c(C)n(-c4ccccc4)nc3c2=O)cc1Cl` here?
A: inactive: -6.88%

Q: `O=C(CN1CCN(c2ccc(Cl)cc2)CC1)Nc1ccc(F)cc1F` was tested. Which activation did it give?
A: inactive: -19.8%

Q: With `Cc1cccn2c(=O)c(/C=C(\C#N)c3nc4ccccc4n3C)c(Oc3ccc(Br)cc3)nc12` as the compound, how does the activation read?
A: inactive: -13.3%

Q: For `CN1C(=O)c2ccccc2Sc2ccc(NC(=O)Nc3ccccc3F)cc21`, which activation is on record?
A: inactive: -12.7%

Q: For `CCOc1ccc(N(CC(=O)Nc2ccc(F)cc2F)S(=O)(=O)c2c(C)[nH]c(=O)[nH]c2=O)cc1`, which activation is on record?
A: inactive: -5.7%

Q: How did the activation turn out when `COc1ccc(CN(CCC(c2ccc3c(c2)OCO3)c2ccccc2OC)C(C)=O)cc1` (centres undefined) was run?
A: inactive: -26%

Q: With `CCOCCCn1c(=N)c(S(=O)(=O)c2ccc(C)cc2)cc2c(=O)n3cccc(C)c3nc21` as the compound, how does the activation read?
A: inactive: 19.7%

Q: With `COc1ccc(CNC(=O)C(=O)NCC(c2cccs2)S(=O)(=O)c2ccc(F)cc2)cc1` (centres undefined) as the compound, how does the activation read?
A: inactive: -0.617%

Q: How did the activation turn out when `CC(=O)N1CCCc2cc(S(=O)(=O)N(C)CC(=O)Nc3ccc(F)cc3Cl)ccc21` was run?
A: inactive: 8.34%

Q: `CCCCOC(=O)NS(=O)(=O)c1sc(CC(C)C)cc1-c1ccc(Cn2c(CC)nc3c(C)cc(C)nc32)cc1` was tested. Which activation did it give?
A: inactive: -25.1%

Q: For `CCc1nn(CC(=O)NC(C)C)c(=O)c2cc3cc(F)ccc3n12`, which activation is on record?
A: inactive: -10.8%

Q: `CCOC(=O)c1ccc(OCC2c3cc(OC)c(OC)cc3CCN2C(=O)Cc2ccc(F)cc2)cc1` (centres undefined) was tested. Which activation did it give?
A: inactive: -3.68%

Q: How did the activation turn out when `O=C(NCC(c1ccc2c(c1)OCO2)N1CCN(c2ccccc2)CC1)c1ccccc1F` (centres undefined) was run?
A: inactive: -19.7%

Q: Which activation does the source give for `Cc1ccc(NC(=O)c2c(Nc3ccccc3C)sc(C(=O)c3ccccc3)c2N)cc1` here?
A: inactive: -78.2%

Q: Which activation does the source give for `Cc1ccc(NC(=O)Cn2c(=O)n(Cc3ccccc3)c(=O)c3c(C)c(C)sc32)c(C)c1` here?
A: inactive: 21.3%

Q: `CC1CCCN(c2csc3ccc(F)cc3c2=O)C1` (centres undefined) was tested. Which activation did it give?
A: inactive: 3.42%

Q: With `COc1ccc(OC(=O)c2nc(SCc3ccc(C)cc3)ncc2Cl)cc1` as the compound, how does the activation read?
A: inactive: -21%

Q: For `CCOC(=O)c1ccc(-n2c(N)c(C(=O)OC)c3nc4ccccc4nc32)cc1`, which activation is on record?
A: inactive: -21.3%

Q: With `CCc1ccccc1NC(=O)C1=CC(c2ccc(OC)c(OC)c2)=NS(=O)(=O)N1C` as the compound, how does the activation read?
A: inactive: -1.75%

Q: With `Cc1cccc(C)c1OCC(=O)NCC1(N2CCOCC2)CCCCC1` as the compound, how does the activation read?
A: inactive: -33.6%

Q: Which activation does the source give for `Cc1ccc(-c2nc(C)c(CCNC(=O)C(=O)Nc3ccc4c(c3)OCCO4)s2)cc1` here?
A: inactive: 27.4%

Q: For `CCCOc1ccc(C(=O)Nc2cccc(-c3nc4ccccc4[nH]3)c2)cc1`, which activation is on record?
A: active: 82.5%

Q: Which activation does the source give for `O=C(CN1C(=O)COc2ccc(S(=O)(=O)N3CCCCC3)cc21)NCc1ccc(F)cc1` here?
A: inactive: -13.5%

Q: How did the activation turn out when `CCc1ccc(-c2nn(CC(=O)NC3CCCC3)c3c2cnc2ccc(C)cc23)cc1` was run?
A: inactive: 37%

Q: With `CC1(C)O[C@H]2[C@@H](O1)[C@@H](C(=O)Nc1ccccc1O)O[C@@H]1OC(C)(C)O[C@@H]12` as the compound, how does the activation read?
A: inactive: -21.9%

Q: With `O=C(Nc1ccc(N2CCC(N3CCCCC3)CC2)c(C(=O)O)c1)c1ccc(Br)cc1` as the compound, how does the activation read?
A: inactive: 3.3%

Q: For `CCOc1cc(C2C(C(=O)OC)=C(C)NC3=C2C(=O)c2ccccc23)ccc1O` (centres undefined), which activation is on record?
A: inactive: -62.3%

Q: For `COc1ccc(-n2nc3ccc(NC(=O)c4cc5ccccc5o4)cc3n2)cc1Cl`, which activation is on record?
A: inactive: -19.7%

Q: `CCOc1ccc(CNC(=O)C2CCCN(c3nc4c(C)cc(C)cc4s3)C2)cc1` (centres undefined) was tested. Which activation did it give?
A: inactive: 1.27%

Q: `COc1ccccc1-c1nc(S(=O)(=O)c2ccc(Cl)cc2)c(N2CCCCCC2)o1` was tested. Which activation did it give?
A: inactive: -9.55%

Q: `CCC(CC)C(=O)Nc1cccc(-c2nc3cccnc3s2)c1C` was tested. Which activation did it give?
A: inactive: -14.6%

Q: For `FC(F)(F)c1ccccc1-n1ccnc1`, which activation is on record?
A: inactive: -8.4% and inactive: -8.61%

Q: `Cc1cccc(/C=C/c2onc(C)c2S(=O)(=O)N2CCC(C(=O)N3CCC(C)CC3)CC2)c1` was tested. Which activation did it give?
A: inactive: -11.3%

Q: `Cc1ccc(C(C)C)c(OCC(=O)Nc2c(C(=O)c3ccccc3)oc3ccccc23)c1` was tested. Which activation did it give?
A: inactive: -0.841%

Q: For `CCCCOc1c(Cl)cc(C(=O)N(Cc2ccc(C)o2)C2CCS(=O)(=O)C2)cc1Cl` (centres undefined), which activation is on record?
A: inactive: 49.2%

Q: For `COc1ccc(S(=O)(=O)N2CCC(c3ccncc3)CC2)cc1Cl`, which activation is on record?
A: inactive: 41.4%

Q: `CN(C(=O)c1cc(-c2ccccc2O)on1)c1ccccc1` was tested. Which activation did it give?
A: inactive: 3.47%

Q: How did the activation turn out when `CSc1ccc(CCNc2ncnc3onc(C)c23)cc1` was run?
A: inactive: 32.6%

Q: Which activation does the source give for `Cc1cc(C)c2oc(C(=O)N(Cc3ccc(F)cc3)C3CCS(=O)(=O)C3)cc(=O)c2c1` (centres undefined) here?
A: inactive: -15.4%

Q: Which activation does the source give for `CCOc1ccc(/C=C(\C#N)c2nc(-c3cc4ccccc4oc3=O)cs2)c(OCC)c1` here?
A: inactive: -3.12%

Q: `CCN1CCN(C(c2ccc(OC)cc2)c2c(O)cc(C)n(CCOC)c2=O)CC1` (centres undefined) was tested. Which activation did it give?
A: inactive: -15.1%

Q: Which activation does the source give for `CCOC(=O)c1c(C)oc2ccc(N(C(=O)Oc3ccccc3)S(=O)(=O)c3ccccc3)cc12` here?
A: inactive: -2.81%

Q: Which activation does the source give for `CN(C(=O)Cn1c(=O)n(CCCS(=O)(=O)C2CCCCC2)c(=O)c2ccccc21)c1ccccc1` here?
A: inactive: -22.4%

Q: How did the activation turn out when `COc1ccccc1NC(=O)c1c(NCc2sccc2C)sc2c1CCCCC2` was run?
A: inactive: -10.1%

Q: For `COc1ccc(C(CNC(=O)COc2ccc(C)cc2)N2CCCCC2)cc1` (centres undefined), which activation is on record?
A: inactive: 1.91%

Q: With `COc1ccc2c(CNCc3ccc(C)o3)c(C(=O)O)n(Cc3ccccc3)c2c1` as the compound, how does the activation read?
A: inactive: 13.2%

Q: For `O=C(Cn1c(=O)oc2ccccc21)NCc1cccc(Cl)c1`, which activation is on record?
A: inactive: -3.91%
